In PubChem BioAssay AID360 (National Center for Advancing Translational Sciences (NCATS), 2006):
The whole screen tested about 48,000 compounds, of which about 550 (1.1%) were called active. Not shown: some 4% with an inconclusive outcome. No stated cut-off is given here; in the data, active means potency below about 15 µM; inconclusive means mostly about 16 µM to 33 µM; inactive means weaker than that. The list shows a part of the results.

What follows are compounds tested against Lysosomal acid glucosylceramidase (Homo sapiens) (UniProt P04062) (assay: Glucocerebrosidase). Details: purified enzyme, resorufin glucoside fluorescence (screen aimed at inhibitors), 20 min.
Method in brief: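 Compounds titrated against 0.2 nM normal enzyme, 30 uM resorufin beta-D-glucopyranoside substrate, citrate/phosphate buffer with taurocholate and tween-20, pH 5.9. Reaction ran 20 min at room temperature; fluorescence (Ex 548/Em 600) gave AC50.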
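Further: the screen sought inhibitors.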
Potency means the concentration at half of the fitted maximal effect.

UniProt P04062, sequence (P04062 whole entry, looked up): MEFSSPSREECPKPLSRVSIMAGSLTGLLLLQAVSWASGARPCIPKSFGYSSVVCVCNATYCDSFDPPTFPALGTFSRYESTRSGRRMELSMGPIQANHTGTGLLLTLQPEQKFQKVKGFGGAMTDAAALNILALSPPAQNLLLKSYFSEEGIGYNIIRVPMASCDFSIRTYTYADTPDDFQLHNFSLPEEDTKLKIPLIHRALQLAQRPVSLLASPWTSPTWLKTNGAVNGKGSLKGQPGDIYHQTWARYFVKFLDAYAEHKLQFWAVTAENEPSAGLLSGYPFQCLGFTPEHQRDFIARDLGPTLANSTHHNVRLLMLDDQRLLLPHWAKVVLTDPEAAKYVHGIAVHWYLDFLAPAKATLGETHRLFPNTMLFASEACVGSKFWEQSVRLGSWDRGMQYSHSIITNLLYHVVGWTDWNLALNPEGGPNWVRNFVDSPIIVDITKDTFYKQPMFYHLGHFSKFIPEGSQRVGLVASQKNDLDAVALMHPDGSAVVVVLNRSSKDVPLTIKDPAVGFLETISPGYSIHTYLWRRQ

Potency, inactive:
CCOc1ccc(OCC)c(C2C(C#N)=C(N)N(c3cccnc3)C3=C2C(=O)CC(C)(C)C3)c1 (stereo not given) > 76.9 µM
Cc1nn(-c2ccccc2)c(C)c1C(=O)OCC(=O)N1CCN(S(=O)(=O)c2ccccc2)CC1 > 76.9 µM
O=C(c1coc2ccc(O)c(CN3CCOCC3)c12)C1CC1 > 76.9 µM
COc1cc2nc(SCC(N)=O)n(CCC3=CCCCC3)c(=O)c2cc1OC > 76.9 µM
CCOC(=O)C1CCN(S(=O)(=O)c2ccc(Br)c(OCC)c2)CC1 > 76.9 µM
C=CCOC(=O)N1CCN(c2cccc(C(F)(F)F)c2)CC1 > 76.9 µM
CN1CCN(C(=O)c2ccc(-c3nn(C)c(=O)c4ccccc34)cc2)CC1 > 76.9 µM
Cc1cccc2cc(CN(Cc3ccco3)C(=O)N3CCCC3)c(=O)[nH]c12 > 76.9 µM
Cc1cccc(C)c1N1C(=O)CC(N(O)c2ccccc2)C1=O (stereo not given) > 76.9 µM
CCOc1ccc(OCC)c(NC(=O)CSc2nnc(-c3cccnc3)o2)c1 > 76.9 µM
Cc1nc2n(n1)C(c1ccccc1)C1=C(CC(c3ccco3)CC1=O)N2 (stereo not given)
COc1cc(C(=O)CSc2nncn2C)cc(OC)c1OC > 76.9 µM
Cn1c2ccccc2c2cc(C(=O)OCC(=O)N3CC(=O)Nc4ccccc43)sc21 > 76.9 µM
Cc1ccnc(SCCn2c(N3CCOCC3)nc3c2c(=O)n(C)c(=O)n3C)n1 > 76.9 µM
Cc1cc(C)nc(-n2nc(C)c3c(C(F)F)cc(C)nc32)n1 > 76.9 µM
O=C(CSc1nnc(CNC(=O)c2ccco2)o1)c1ccccc1 > 76.9 µM
COc1cc([C@H]2[C@@H]3CCCC[C@]3(O)CCN2CC(=O)Nc2ccc(C)cc2)ccc1O > 76.9 µM
CC1(C)SC2c3ccccc3C(=O)N2[C@@H]1C(=O)NCCCN1CCOCC1 (stereo not given in full) > 76.9 µM
COC(=O)[C@H](C)NC(=O)Nc1ccc(C)c(C)c1 > 76.9 µM
CCCCn1c(NC(=O)c2ccc(F)cc2)c(C#N)c2nc3ccccc3nc21 > 76.9 µM
COc1ccc(-c2nn(C)c3sc(C(=O)N4CCOCC4)cc23)cc1OC > 76.9 µM
COc1ccc(OCC(=O)Nc2cccc(NC(=O)COc3ccc(OC)cc3)n2)cc1 > 76.9 µM
O=C(OCc1ccccc1)Oc1cncc(C(=O)O)c1 > 76.9 µM
O=C(CCCN1C(=O)c2ccccc2C1=O)Nc1ccccn1 > 76.9 µM
COc1ccccc1NC(=O)CSc1nnc(C)n1Cc1ccccc1 > 76.9 µM
CCC(=NCCN1CCNCC1)C1=C(O)CC(C)(C)CC1=O > 76.9 µM
C/C(N)=C(\C#N)C(=O)NCc1ccccn1 > 76.9 µM
COc1ccc2sc(NC(=O)c3ccco3)nc2c1 > 76.9 µM
O=C(Cn1nnc(-c2ccccc2)n1)NCc1ccccc1 > 76.9 µM
O=C(O)c1cc2c(s1)-c1ccccc1OC2 > 76.9 µM
CCOC(=O)c1oc2ccccc2c1NC(=O)CN1CCN(C)CC1 > 76.9 µM
Cn1cccc1C(=O)NC(=O)CSc1nnc(C2CC2)n1-c1ccccc1 > 76.9 µM
CC1=C(C(=O)Nc2ccc(F)cc2)C(c2ccncc2)C2=C(CCCC2=O)N1 (stereo not given) > 76.9 µM
C=C(C)COc1ccc(-c2nc(N)ncc2Oc2ccccc2OCC)c(O)c1 > 76.9 µM
O=C(NC1CCCCC1)N1CCCC(c2nc(-c3ccc(S(=O)(=O)N4CCCC4)cc3)no2)C1 (stereo not given) > 76.9 µM
CCOC(=O)C(Cc1c[nH]c2ccccc12)NC(=O)CNC(C)=O (stereo not given) > 76.9 µM
CCCCc1ccc(NC(=O)N[C@H](C(=O)O)C(C)CC)cc1 (stereo not given in full) > 76.9 µM
CCCSC1=C(C#N)C(c2ccccc2C)CC(=O)N1 (stereo not given) > 76.9 µM
COC(=O)c1ccccc1NS(=O)(=O)c1ccc(F)cc1 > 76.9 µM
COc1ccc(S(=O)(=O)N2CCCC(C(=O)NC3CCCCC3)C2)cc1 (stereo not given) > 76.9 µM
CCC(=O)N1CCN(c2nc(C)nc3sc(C)c(C)c23)CC1 > 76.9 µM
COC(=O)CNC(=O)CCCCC(=O)NCC(=O)OC > 76.9 µM
O=C(CN1CCN(S(=O)(=O)c2ccc(Br)cc2)CC1)Nc1ccc(F)cc1F > 76.9 µM
CC1CN(Cc2nc3c(c(=O)n(C)c(=O)n3C)n2CCN2CCOCC2)CC(C)O1 (stereo not given) > 76.9 µM
COc1ccc(-n2c(SCC(=O)OC(C)C)nnc2-c2ccccn2)cc1 > 76.9 µM
Cc1c(C(=O)O)c2cc(O)ccc2n1-c1ccccc1 > 76.9 µM
O=C(O)CCc1ccc(-c2cccs2)n1NC(=O)c1ccco1 > 76.9 µM
CCOc1cc(C(=O)Nc2cc(C)on2)cc(OCC)c1OCC > 76.9 µM
CCOC(=O)N1CCN(C(=O)C2CCC(CNS(=O)(=O)c3ccccc3)CC2)CC1 (stereo not given) > 76.9 µM
O=C(c1ccc2c(c1)c(=O)oc1ccccc12)N1CCCCC1 > 76.9 µM
CSc1nnc([C@@H](NC(=O)OC(C)(C)C)C(C)C)o1 > 76.9 µM
COC(=O)Nc1ccc(S(=O)(=O)Nc2ccccc2F)cc1 > 76.9 µM
Cc1ccc(O)c(C(=O)c2cnc3c(c2)CN(CCC(C)C)C(=O)N3)c1 > 76.9 µM
COc1cc2c(cc1OC)CN(C(=O)CSc1nnc(C)s1)CC2 > 76.9 µM
Cc1csc2c(C#N)c(=O)c3c(n12)CCC3 > 76.9 µM
COC(=O)c1sc(=S)n(-c2cccc(Cl)c2)c1N
CCOC(=O)c1[nH]c(C)c(C(=O)NCCCN2CCOCC2)c1C > 76.9 µM
CCCCCOc1ccc(N2C(=O)CC(N(O)c3ccccc3)C2=O)cc1 (stereo not given) > 76.9 µM
Cc1cc2nc(-c3ccc(SCC(=O)N4CCOCC4)nc3)[nH]c2cc1C > 76.9 µM
O=C1C2CCCN2C(c2ccccc2)N1c1nccs1 (stereo not given) > 76.9 µM
Cc1ccc(CN2CC34C=CC(O3)C(C(=O)NCc3ccc5c(c3)OCO5)C4C2=O)cc1 (stereo not given) > 76.9 µM
O=C(O)CSCCCC(=O)Nc1ccc(Br)cc1 > 76.9 µM
CCn1c(NCCc2ccc(OC)c(OC)c2)nc2c1c(=O)n(C)c(=O)n2C > 76.9 µM
O=C1N2CCSC2=NC1(Nc1nccs1)C(F)(F)F (stereo not given) > 76.9 µM
O=C(O)CCC(=O)Nc1ccc(N2CCOCC2)cc1 > 76.9 µM
COc1ccccc1C(=O)Nc1ccc(S(=O)(=O)N2CCCC2)cc1 > 76.9 µM
CC(C)(C)NC(=O)Cn1c(SCC(=O)NC2CCCCC2)nc2ccccc21 > 76.9 µM
CC1=C(C(=O)OCc2ccccc2)C(c2cccnc2)n2ncnc2N1 (stereo not given) > 76.9 µM
Cn1c2ccccc2c2c(C(=O)N3CCN(c4ccccc4)CC3)cn(C3CCCC3)c(=O)c21 > 76.9 µM
CCOC(=O)c1sc(NC(=O)C(CC)Sc2nnc3c4ccccc4n(CC)c3n2)nc1C (stereo not given) > 76.9 µM
Cc1ccc2cc(C#N)c(N3CCCN(C(=O)C4CCCO4)CC3)nc2c1 (stereo not given) > 76.9 µM
Cc1nn(-c2ccccc2C(=O)O)c(=O)c2ccccc12 > 76.9 µM
CC(C)(C)n1ncc2c(=O)n(CC(=O)NCc3ccco3)cnc21 > 76.9 µM
O=S(=O)(/N=C(\c1ccccc1)N1CCOCC1)c1cccs1 > 76.9 µM
CCCOC(=O)C1[C@H]2C(=O)N(CC3CCCO3)C[C@]23C=C[C@H]1O3 (stereo not given in full) > 76.9 µM
O=C(Nc1ccccc1N1CCCC1)c1ccc(Br)o1 > 76.9 µM
COc1ccc(C)cc1NC(=O)CN(Cc1nnc(-c2ccc(Cl)cc2)o1)C1CCCC1 > 76.9 µM
CC1CC(c2ccccc2)n2nc(NC(=O)CCc3ccccc3)nc2N1 (stereo not given) > 76.9 µM
CCOC(=O)CC1Sc2ccccc2NC1=O (stereo not given) > 76.9 µM
CCOCC(=O)N1CCN(c2ccc(F)cc2)CC1 > 76.9 µM
CCC(C)N=C1SCC(C)(/C=N/O)S1 (stereo not given) > 76.9 µM
O=C(Nc1ccc2oc(=O)ccc2c1)c1ccco1 > 76.9 µM
O=C(NCc1ccc2c(c1)OCO2)c1ccc2c(=O)n(C3CCCC3)c(=O)[nH]c2c1 > 76.9 µM
Cc1noc(C)c1C(=O)NCCC1=CCCCC1 > 76.9 µM
COC(=O)c1ccc(C(=O)OC)c(NC(=O)CSc2nnc(-c3ccccc3Cl)o2)c1 > 76.9 µM
CCCc1cc(=O)[nH]c(/N=C(/NC(=O)C(C)N2C(=O)c3ccccc3C2=O)Nc2ccccc2)n1 (stereo not given) > 76.9 µM
CCN(CC)CCNC(=O)C1c2ccccc2C(=O)N(C)C1c1cn(C)c2ccccc12 (stereo not given) > 76.9 µM
CC(=O)OC(C(=O)NC1CCCCC1)c1ccncc1 (stereo not given) > 76.9 µM
COC(=O)CNC(=O)c1cn(CC(C)C)c(=O)c2cc(OC)c(OC)cc12 > 76.9 µM
c1ccc(Cn2c(SCc3cn4cccnc4n3)nnc2-c2ccco2)cc1 > 76.9 µM
